The full ranking holds about 33,000 sequences; the median of “E-score (-0.5 to 0.5)” is about -0.013, and the highest 2% start at about 0.3. The list shows a part of the results.
biological target: T1, Msn1 (UniProt P22148); test: PBM E-score (8-mer binding enrichment) (E-score (-0.5 to 0.5)); higher = stronger / more preferred TF binding; most listed sequences are background and not binding sites; details: protein concentration: 200 nM; construct: GST-full length
T1 sequence: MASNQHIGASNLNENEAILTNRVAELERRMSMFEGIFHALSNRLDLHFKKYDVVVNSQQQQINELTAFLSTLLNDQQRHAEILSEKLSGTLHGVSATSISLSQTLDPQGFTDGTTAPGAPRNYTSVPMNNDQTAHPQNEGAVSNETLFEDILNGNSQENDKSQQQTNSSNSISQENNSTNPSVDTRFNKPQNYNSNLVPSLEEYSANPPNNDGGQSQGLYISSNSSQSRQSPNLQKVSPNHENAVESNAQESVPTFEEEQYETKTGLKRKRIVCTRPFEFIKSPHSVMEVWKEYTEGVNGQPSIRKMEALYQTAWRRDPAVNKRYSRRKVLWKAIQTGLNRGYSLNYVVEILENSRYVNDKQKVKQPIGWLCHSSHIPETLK
How it was run: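 The E-score, a modified Wilcoxon-Mann-Whitney statistic, was computed by the Universal PBM Analysis Suite for every ungapped eight-base word pooled with its reverse complement. Scans behind it were normalised with masliner after bound GST-tagged yeast transcription factors were detected with fluorescent anti-GST. The proteins, at about 100-200 nM, had been applied to universal all-10-mer Agilent arrays made double-stranded by primer extension.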

Sequence	PBM E-score
CCTGCCAA	-0.125
CTACTTGC	0.0456
AGAGGACG	-0.0239
TATCTCCA	0.0995
AGTGCTAG	-0.0691
ACCCCGAA	0.11
AAGTCCTA	0.409
AAACAGGG	0.09
ACGCTTGC	-0.222
AAAGACGC	0.111
ACGATACA	-0.00049
GTGAACAA	-0.0336
AATCTGTC	0.235
ACTACCCC	-0.236
ATGCGTTC	0.173
AACTAGCT	-0.0195
GAACGGCC	-0.0295
ATCGGAGA	0.0493
AACGCTGA	-0.0479
TGTAAAAA	0.148
CAGGATGA	-0.0423
CAGCGGCG	0.0902

Sequence	PBM E-score
CCTATCAA	0.187
CGCAGGAA	-0.206
TACTTAAA	-0.0209
CCTAGAAA	0.096
AGCAAAAG	0.0423
CTCGATAC	0.0646
AAGTGTAT	0.0747
AGTGCACG	-0.0746
CGATTGCC	-0.0308
CGCCGCAA	-0.00202
ACTTGACT	0.0663
CGCTCCTA	-0.11
ATCGCGTC	0.0368
AGGTTTTA	-0.0592
CAATATGC	-0.00156
AGTTCCGG	0.089
AACTACAA	0.117
GCCTTACC	-0.239
AATGATGT	0.242
TGAGTCCA	0.0938
GAAGCCTC	-0.204
GGTGCGGA	-0.047

Sequence	PBM E-score
GCACCGTA	-0.0148
ATTCGGAA	0.167
ACGAACCT	-0.0925
CGCACAAA	0.0557
ATCCAGCG	0.00311
AGGGTACT	-0.34
CTAGTATA	0.0125
AGACTCAT	-0.111
TAGACATA	0.41
ACTCAGAG	-0.0625
CGCGCTTC	-0.0305
CGGCTCCC	-0.17
ATAAGCTG	0.0198
CACCTGAC	-0.0449
ATTCGGGG	-0.0264
CAAGTGGC	0.0127
TCTCAAAA	0.17
GCCAAGAA	-0.0682
GGTTAGGA	-0.267
CGGAGCGA	0.204
AACCATAT	0.148
ATCGCGCC	0.0253

Sequence	PBM E-score
GGAGTAAA	0.142
AACAGCTT	0.029
GAACCTCA	0.0628
ACTGGTGG	-0.142
GGGTCGGA	-0.0868
CTATTACA	0.0558
AAGGGTCC	-0.253
GTGGACAA	0.468
CGAGTGTC	0.232
AACGTCCC	0.0192
TAAGCCCA	-0.231
GAAGTACA	0.102
AAAGGAGC	-0.0516
CACGCTAC	-0.109
CGATCGCC	0.158
CCAGCTAC	-0.236
ACTAGCCA	-0.0391
AAGACTCC	-0.149
AGCGCCTA	0.122
CAGCTTTA	0.00511
CGGGTGTC	-0.027

Source: the supplement of paper PMC3334620
